# Laboratory results from paper PMC4336329 (PLoS ONE, 2015).
# The campaign covered roughly 310,000 compounds. About 2,200 (0.71%) showed an effect of 50% or more. The effect is printed as a negative number. The list shows a part of the results.
# Target: human ether-à-go-go-related gene (hERG) potassium channel (human, UniProt Q12809)
# Assay: primary screen, population patch clamp on CHO cells stably expressing hERG
# Sequence of human ether-à-go-go-related gene (hERG) potassium channel (Q12809 whole entry, looked up): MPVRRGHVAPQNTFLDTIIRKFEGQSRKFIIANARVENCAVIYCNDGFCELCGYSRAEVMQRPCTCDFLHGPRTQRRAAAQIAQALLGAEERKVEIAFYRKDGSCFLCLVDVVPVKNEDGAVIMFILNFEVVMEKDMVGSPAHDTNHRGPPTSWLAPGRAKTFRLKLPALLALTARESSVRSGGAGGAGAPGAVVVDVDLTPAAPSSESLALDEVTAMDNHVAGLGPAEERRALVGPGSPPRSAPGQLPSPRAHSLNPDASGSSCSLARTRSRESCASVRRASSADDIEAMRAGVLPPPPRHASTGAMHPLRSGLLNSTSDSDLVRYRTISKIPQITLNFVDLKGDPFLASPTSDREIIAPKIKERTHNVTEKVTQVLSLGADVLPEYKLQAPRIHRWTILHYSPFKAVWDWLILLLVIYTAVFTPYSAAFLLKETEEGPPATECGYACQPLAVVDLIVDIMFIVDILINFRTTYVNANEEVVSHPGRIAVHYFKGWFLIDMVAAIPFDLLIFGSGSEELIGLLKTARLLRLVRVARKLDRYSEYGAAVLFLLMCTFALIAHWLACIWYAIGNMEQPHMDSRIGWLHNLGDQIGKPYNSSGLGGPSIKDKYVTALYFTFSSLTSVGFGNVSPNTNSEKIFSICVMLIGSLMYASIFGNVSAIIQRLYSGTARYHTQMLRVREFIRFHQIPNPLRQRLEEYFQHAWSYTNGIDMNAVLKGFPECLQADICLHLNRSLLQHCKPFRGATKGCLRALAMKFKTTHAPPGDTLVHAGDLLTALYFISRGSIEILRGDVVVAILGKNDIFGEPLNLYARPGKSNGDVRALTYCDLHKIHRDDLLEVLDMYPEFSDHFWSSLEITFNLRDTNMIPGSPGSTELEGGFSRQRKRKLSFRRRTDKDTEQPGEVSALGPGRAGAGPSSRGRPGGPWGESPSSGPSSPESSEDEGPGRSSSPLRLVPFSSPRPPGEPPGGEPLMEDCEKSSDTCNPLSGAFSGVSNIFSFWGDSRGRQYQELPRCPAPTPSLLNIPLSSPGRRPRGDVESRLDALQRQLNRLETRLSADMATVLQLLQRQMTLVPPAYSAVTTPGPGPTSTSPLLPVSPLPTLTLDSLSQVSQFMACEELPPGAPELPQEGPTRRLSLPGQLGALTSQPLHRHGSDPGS
row,SMILES,"hERG current change (%, negative = inhibition) at 1uM [%]"
1,O=C1C(=O)c2ccc(-c3ccccc3)cc2-c2ccccc21,14.3
2,COc1ccc(O)c(/C=N/NC(=S)Nc2cccnc2)c1,11.9
3,CC(/C=N/N1CCN(c2ccccn2)CC1)=C\c1ccccc1,10.3
4,O=C(CSc1ncccn1)NCc1ccc2c(c1)OCO2,5.32
5,Cc1cccc(NC(=O)C2C3CCCCC32)c1 (stereo not shown),19.1
6,CCCc1ccc(C(=O)CCC(=O)NNC(=O)c2ccncc2)cc1,3.3
7,CC(C)(C)C(O)(CC#CCN1CCCC1)c1ccccc1.Cl (stereo not shown),24
8,Cn1nccc1C(=O)N(CCN1CCCCC1)CC1CCCN(C2CCCC2)C1 (stereo not shown),8.81
9,COc1ccc(N2CC(C(=O)N[C@H](C(=O)NC(C)c3ccccc3)C(C)C)CC2=O)cc1 (stereo partly shown),8.37
10,Cn1c(NC(=O)c2cccnc2)nc2ccccc21,14.6
11,CCC(C)(C)C1CCc2[nH]nc(C(=O)NCc3ccc(Cl)cc3)c2C1 (stereo not shown),19.4
12,O=C(Nc1ccc(O)c(-c2nc3ccccc3s2)c1)c1cccs1,-3.11
13,Cc1ccc(C(=O)N2CCN(c3cccc(C)c3C)CC2)o1,3.6
14,Cc1nc(NCCNC(=O)c2ccco2)c2c(C)c(C)sc2n1,17.4
15,CCOC(=O)c1sc2nccc(OC)c2c1N=CNOC,5.68
16,COc1ccc(N(C(=O)c2ccco2)C(C(=O)NC2CCCC2)c2cccs2)cc1OC (stereo not shown),16.6
17,CCC(C)NC(=O)CCCCCn1c(=O)[nH]c2cc(OC)c(OC)cc2c1=O (stereo not shown),-3
18,Cc1cccc(NC(=O)c2cc(-c3cc(Cl)ccc3O)n[nH]2)c1,15.7
19,CC(C)(C)C(=O)Nc1cc(C(F)(F)F)ccc1-n1ccnc1,13.2
20,O=C1OCCC/C1=C\c1ccc2c(c1)OCO2,8.36
21,COc1ccc(CC(=O)OCC(=O)N(CC(C)C)c2c(N)n(Cc3ccccc3)c(=O)[nH]c2=O)cc1,12.3
22,Cc1ccc(-c2nc(CS(=O)CC(=O)NC3CCCC(C)C3C)c(C)o2)cc1 (stereo not shown),14.5
23,CN(c1ccccc1)S(=O)(=O)c1ccc(Cl)c(C(=O)NCCc2c[nH]c3ccccc23)c1,-4.51
24,O=c1oc(-c2ccc(Br)o2)nc2ccccc12,15.1
25,COc1ccc(Cl)cc1NC(=O)CN(C)CC(=O)Nc1c(C)n(C)n(-c2ccccc2)c1=O,12.4
